Results are given in words; binding and its absence hold for the method and conditions named. In cells and extracts the contact can be indirect. Some entries that bind do so weakly or less than the wild type.
Tests used:
[1] = target: Transforming Acidic Coiled-Coil Containing Protein 3 (TACC3), endogenous (human (endogenous in JIMT-1)) (UniProt Q9Y6A5); assay: co-IP; IP of endogenous TACC3 in JIMT-1 cells synchronized at interphase (G1), untreated or treated with BO-264 (5 µM) for 4 h (Fig. 5J)
APEX2-TACC3 [2] = target: APEX2-TACC3 (UniProt Q9Y6A5); assay: co-IP; TACC3 pulldown (IP) in APEX2-TACC3 overexpressing JIMT-1 cells synchronized at interphase (G1, double thymidine block) (Fig. 5H)
[3] = target: KIFC1 in HEK293T cells (human (endogenous in HEK293T)) (UniProt Q9BW19); assay: co-IP; IP of KIFC1 and immunoblotting with GFP antibody in mitotic HEK293T cells transfected with GFP-labelled TACC3 vectors (Fig. 3O)
[4] = target: MBD2 in HEK293T cells (human (endogenous in HEK293T)) (UniProt Q9UBB5); assay: co-IP; IP of HDAC2 or MBD2 and immunoblotting with GFP antibody in HEK293T cells transfected with GFP-labelled TACC3 vectors (Fig. 5K)
[5] = target: HDAC2 in HEK293T cells (human (endogenous in HEK293T)) (UniProt Q92769); assay: as above
[6] = target: Transforming Acidic Coiled-Coil Containing Protein 3 (TACC3), endogenous (human (endogenous in JIMT-1)) (UniProt Q9Y6A5); assay: co-IP; IP of endogenous TACC3 in JIMT-1 cells synchronized at interphase (G1), untreated or treated with BO-264 (5 µM) for 4 h (Fig. 5J); remark: listed apart in the source
[7] = target: Transforming Acidic Coiled-Coil Containing Protein 3 (TACC3), endogenous (human (endogenous in JIMT-1)) (UniProt Q9Y6A5); assay: condition: only cells treated with BO-264 (5 µM) for 4 h; co-IP; IP of endogenous TACC3 in JIMT-1 cells synchronized at mitosis and treated with BO-264 for 4 h (5 µM) (Fig. 3I)
APEX2-TACC3 [8] = target: APEX2-TACC3 (UniProt Q9Y6A5); assay: co-IP; TACC3 pulldown (IP) in APEX2-TACC3 overexpressing JIMT-1 cells synchronized at interphase (G1, double thymidine block) (Fig. 5H); remark: listed apart in the source
APEX2-TACC3 [9] = target: APEX2-TACC3 (UniProt Q9Y6A5); assay: co-IP; IP of TACC3 in APEX2-TACC3 overexpressing mitotic JIMT-1 cells, Western blotting of partners (Fig. 3H)
[10] = target: Transforming Acidic Coiled-Coil Containing Protein 3 (TACC3), endogenous (human (endogenous in JIMT-1)) (UniProt Q9Y6A5); assay: co-IP; IP of endogenous TACC3 in JIMT-1 cells synchronized at mitosis, untreated (Fig. 3I)

MBD2, endogenous in JIMT-1 (from UniProt Q9UBB5 1-411)
binding [1]: binds
binding (APEX2-TACC3 [2]): binds

GFP-labelled C-terminal region of TACC3 (594-838 aa) (from UniProt Q9Y6A5 594-838) (domain or fragment)
binding [3]: binds
binding [4]: binds
binding [5]: binds

B1: Kinesin Family Member C1 (KIFC1), endogenous in JIMT-1 (protein, UniProt Q9BW19 1-673)
chain: MDPQRSPLLEVKGNIELKRPLIKAPSQLPLSGSRLKRRPDQMEDGLEPEKKRTRGLGATTKITTSHPRVPSLTTVPQTQGQTTAQKVSKKTGPRCSTAIATGLKNQKPVPAVPVQKSGTSGVPPMAGGKKPSKRPAWDLKGQLCDLNAELKRCRERTQTLDQENQQLQDQLRDAQQQVKALGTERTTLEGHLAKVQAQAEQGQQELKNLRACVLELEERLSTQEGLVQELQKKQVELQEERRGLMSQLEEKERRLQTSEAALSSSQAEVASLRQETVAQAALLTEREERLHGLEMERRRLHNQLQELKGNIRVFCRVRPVLPGEPTPPPGLLLFPSGPGGPSDPPTRLSLSRSDERRGTLSGAPAPPTRHDFSFDRVFPPGSGQDEVFEEIAMLVQSALDGYPVCIFAYGQTGSGKTFTMEGGPGGDPQLEGLIPRALRHLFSVAQELSGQGWTYSFVASYVEIYNETVRDLLATGTRKGQGGECEIRRAGPGSEELTVTNARYVPVSCEKEVDALLHLARQNRAVARTAQNERSSRSHSVFQLQISGEHSSRGLQCGAPLSLVDLAGSERLDPGLALGPGERERLRETQAINSSLSTLGLVIMALSNKESHVPYRNSKLTYLLQNSLGGSAKMLMFVNISPLEENVSESLNSLRFASKVNQCVIGTAQANRK
binding [6]: binds weakly
binding [7]: no binding
binding (APEX2-TACC3 [8]): binds weakly
binding (APEX2-TACC3 [9]): binds
binding [10]: binds

Source: paper PMC10154422
